Assay results taken from patent US20220033784A1 (Pfizer, published 2022).

How the values were obtained:
[1] = target: T1, human intermediate-affinity IL-2 receptor complex, IL-2 CD122/CD132 (β/γ), on cells (human, UniProt P14784 27-551; P31785 23-369); test: cell-based or functional assay
T1 sequence (looked up) 1: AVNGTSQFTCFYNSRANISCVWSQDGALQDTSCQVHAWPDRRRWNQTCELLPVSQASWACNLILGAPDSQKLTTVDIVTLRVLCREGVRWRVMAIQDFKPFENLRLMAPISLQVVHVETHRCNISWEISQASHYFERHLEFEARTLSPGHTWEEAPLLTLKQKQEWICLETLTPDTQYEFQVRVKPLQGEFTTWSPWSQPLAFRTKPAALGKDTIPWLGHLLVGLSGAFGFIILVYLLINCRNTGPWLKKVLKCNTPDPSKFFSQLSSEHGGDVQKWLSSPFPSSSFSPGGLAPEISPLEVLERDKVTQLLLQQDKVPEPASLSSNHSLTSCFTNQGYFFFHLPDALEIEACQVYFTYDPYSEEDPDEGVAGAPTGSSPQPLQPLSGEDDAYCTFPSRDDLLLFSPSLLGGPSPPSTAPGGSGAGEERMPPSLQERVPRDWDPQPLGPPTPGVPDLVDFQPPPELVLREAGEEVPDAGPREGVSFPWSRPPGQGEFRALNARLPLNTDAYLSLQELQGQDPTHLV
T1 sequence (looked up) 2: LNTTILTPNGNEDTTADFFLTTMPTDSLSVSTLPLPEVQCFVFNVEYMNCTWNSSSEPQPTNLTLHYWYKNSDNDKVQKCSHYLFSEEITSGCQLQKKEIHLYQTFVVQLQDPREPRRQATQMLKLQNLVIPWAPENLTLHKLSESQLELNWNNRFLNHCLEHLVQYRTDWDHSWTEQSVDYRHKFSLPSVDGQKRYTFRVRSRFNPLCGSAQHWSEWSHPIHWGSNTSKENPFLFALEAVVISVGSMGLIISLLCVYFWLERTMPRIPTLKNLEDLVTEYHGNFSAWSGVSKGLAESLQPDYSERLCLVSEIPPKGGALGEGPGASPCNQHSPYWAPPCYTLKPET

[2] = target: T2, human high-affinity IL-2 receptor complex, IL-2 CD25/CD122/CD132 (α/β/γ), on cells (human, UniProt P01589 22-272; P14784 27-551; P31785 23-369); test: cell-based or functional assay
T2 sequence (looked up) 1: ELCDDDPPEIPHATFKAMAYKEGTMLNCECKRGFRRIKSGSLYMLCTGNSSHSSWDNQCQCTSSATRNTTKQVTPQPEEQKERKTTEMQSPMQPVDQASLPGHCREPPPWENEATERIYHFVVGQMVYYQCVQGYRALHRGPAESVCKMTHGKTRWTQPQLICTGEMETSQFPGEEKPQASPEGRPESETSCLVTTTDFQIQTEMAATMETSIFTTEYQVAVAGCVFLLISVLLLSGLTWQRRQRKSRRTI
T2 sequence (looked up) 2: T1 sequence (looked up) 1
T2 sequence (looked up) 3: T1 sequence (looked up) 2

[3] = target: T1, human intermediate-affinity IL-2 …; test: cell-based or functional assay; remark: listed apart in the source
[4] = target: T2, human high-affinity IL-2 receptor …; test: cell-based or functional assay; remark: listed apart in the source
[5] = target: T1, human intermediate-affinity IL-2 …; test: cell-based or functional assay; remark: listed apart in the source
[6] = target: T1, human intermediate-affinity IL-2 …; test: cell-based or functional assay; remark: listed apart in the source
[7] = target: T3, human IL-2 receptor alpha (IL-2Rα, CD25), purified soluble (human, UniProt P01589 22-240); test: SPR (Biacore 8K, 25 C), CD25 amine-coupled on CM5 chip, Fc-IL2 as analyte, 1:1 Langmuir fit
T3 construct: also called hIL2Rα (CD25); human IL-2Rα
T3 sequence (looked up): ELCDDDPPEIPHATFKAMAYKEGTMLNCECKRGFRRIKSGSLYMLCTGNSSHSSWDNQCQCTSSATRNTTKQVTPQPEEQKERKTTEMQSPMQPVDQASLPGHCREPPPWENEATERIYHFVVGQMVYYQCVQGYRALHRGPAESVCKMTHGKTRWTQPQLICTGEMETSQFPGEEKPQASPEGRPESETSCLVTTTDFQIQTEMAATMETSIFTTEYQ

[8] = target: T4, human IL-2 receptor beta (IL-2Rβ, CD122), purified soluble (human, UniProt P14784 27-240); test: SPR (Biacore 8K, 25 C), CD122 amine-coupled on CM5 chip, Fc-IL2 as analyte, 1:1 Langmuir fit
T4 construct: also called hILR2β (CD122); human IL-2Rβ
T4 sequence (looked up): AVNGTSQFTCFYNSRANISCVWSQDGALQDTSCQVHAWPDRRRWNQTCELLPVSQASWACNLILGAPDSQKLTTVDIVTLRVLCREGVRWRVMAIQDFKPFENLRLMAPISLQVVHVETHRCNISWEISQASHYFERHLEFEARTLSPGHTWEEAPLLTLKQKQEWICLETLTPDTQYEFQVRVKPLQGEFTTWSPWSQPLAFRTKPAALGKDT

B1: Fc-IL2 (wild-type) (Fc fusion)
chain: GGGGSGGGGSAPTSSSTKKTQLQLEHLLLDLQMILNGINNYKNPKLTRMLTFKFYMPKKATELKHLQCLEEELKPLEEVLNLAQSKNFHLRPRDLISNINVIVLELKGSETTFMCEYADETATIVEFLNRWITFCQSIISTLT
[1]
  EC50, pSTAT5 induction in HH T cells (ELISA): 16.9 nM
[2]
  EC50, pSTAT5 induction in iTreg cells (ELISA): < 0.2 pM
[3]
  EC50, pSTAT5 in CD8 T cells of hPBMCs (flow cytometry): 15.7 nM
  EC50, pSTAT5 in NK cells of hPBMCs (flow cytometry): 2.52 nM
[4]
  EC50, pSTAT5 in Treg cells of hPBMCs (flow cytometry): 10 pM
[5]
  EC50 (read off the curve), pSTAT5 MFI in NK cells of hPBMC: ~4 nM
[6]
  EC50 (read off the curve), pSTAT5 MFI in NK cells of hPBMC: ~4 nM
[7]
  koff: 0.0859 s⁻¹
  kon: 2.27e+06 M⁻¹ s⁻¹
[8]
  Kd: 2120 nM
  koff: 0.279 s⁻¹
  kon: 131000 M⁻¹ s⁻¹

Read-outs that look alike come from different tables or passages of the source.
